PubChem BioAssay AID504333 (National Center for Advancing Translational Sciences (NCATS), 2011)
Where “and” joins values, the source holds several entries; their conditions need not be identical. Equal entries are not always repeated. Screen size: about 360,000 compounds; about 16,000 (4.4%) were called active. Inconclusive means that the source gave no clear call. Such entries were picked first, then a sample of the others. Calls come from the whole dose curve; as a rule, active = well fitted inhibition curve with a large enough effect; inconclusive = small, poorly fitted or top-dose-only effect; inactive = no such curve, though single readings can be large or run the other way. Potencies of inconclusive entries are doubtful fits and often do not repeat.

These compounds were tested against Bromodomain adjacent to zinc finger domain protein 2B (Homo sapiens) (UniProt Q9UIF8) (assay: qHTS Assay for Inhibitors of BAZ2B). Settings: AlphaScreen BAZ2B-H3K14Ac peptide displacement; activity change, negative = inhibition: at 114 µM (top of the series) unless noted.
How it was run: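 AlphaScreen luminescence quantifies BAZ2B engagement of H3K14Ac peptide; the protein and biotinylated peptide are both at 50 nM final, buffer PBS pH 7.4 with 0.01% Tween-20, all steps at room temperature.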
% is set by controls: 0 for no effect and ±100 for the full control effect; potency is the fitted concentration of half-maximal effect; tags give direction and shape of the fitted curve.
Note: nearly all actives have a fitted effect of over 60% in size.

Sequence of UniProt Q9UIF8 (Q9UIF8 whole entry, looked up, the tested form may be a part): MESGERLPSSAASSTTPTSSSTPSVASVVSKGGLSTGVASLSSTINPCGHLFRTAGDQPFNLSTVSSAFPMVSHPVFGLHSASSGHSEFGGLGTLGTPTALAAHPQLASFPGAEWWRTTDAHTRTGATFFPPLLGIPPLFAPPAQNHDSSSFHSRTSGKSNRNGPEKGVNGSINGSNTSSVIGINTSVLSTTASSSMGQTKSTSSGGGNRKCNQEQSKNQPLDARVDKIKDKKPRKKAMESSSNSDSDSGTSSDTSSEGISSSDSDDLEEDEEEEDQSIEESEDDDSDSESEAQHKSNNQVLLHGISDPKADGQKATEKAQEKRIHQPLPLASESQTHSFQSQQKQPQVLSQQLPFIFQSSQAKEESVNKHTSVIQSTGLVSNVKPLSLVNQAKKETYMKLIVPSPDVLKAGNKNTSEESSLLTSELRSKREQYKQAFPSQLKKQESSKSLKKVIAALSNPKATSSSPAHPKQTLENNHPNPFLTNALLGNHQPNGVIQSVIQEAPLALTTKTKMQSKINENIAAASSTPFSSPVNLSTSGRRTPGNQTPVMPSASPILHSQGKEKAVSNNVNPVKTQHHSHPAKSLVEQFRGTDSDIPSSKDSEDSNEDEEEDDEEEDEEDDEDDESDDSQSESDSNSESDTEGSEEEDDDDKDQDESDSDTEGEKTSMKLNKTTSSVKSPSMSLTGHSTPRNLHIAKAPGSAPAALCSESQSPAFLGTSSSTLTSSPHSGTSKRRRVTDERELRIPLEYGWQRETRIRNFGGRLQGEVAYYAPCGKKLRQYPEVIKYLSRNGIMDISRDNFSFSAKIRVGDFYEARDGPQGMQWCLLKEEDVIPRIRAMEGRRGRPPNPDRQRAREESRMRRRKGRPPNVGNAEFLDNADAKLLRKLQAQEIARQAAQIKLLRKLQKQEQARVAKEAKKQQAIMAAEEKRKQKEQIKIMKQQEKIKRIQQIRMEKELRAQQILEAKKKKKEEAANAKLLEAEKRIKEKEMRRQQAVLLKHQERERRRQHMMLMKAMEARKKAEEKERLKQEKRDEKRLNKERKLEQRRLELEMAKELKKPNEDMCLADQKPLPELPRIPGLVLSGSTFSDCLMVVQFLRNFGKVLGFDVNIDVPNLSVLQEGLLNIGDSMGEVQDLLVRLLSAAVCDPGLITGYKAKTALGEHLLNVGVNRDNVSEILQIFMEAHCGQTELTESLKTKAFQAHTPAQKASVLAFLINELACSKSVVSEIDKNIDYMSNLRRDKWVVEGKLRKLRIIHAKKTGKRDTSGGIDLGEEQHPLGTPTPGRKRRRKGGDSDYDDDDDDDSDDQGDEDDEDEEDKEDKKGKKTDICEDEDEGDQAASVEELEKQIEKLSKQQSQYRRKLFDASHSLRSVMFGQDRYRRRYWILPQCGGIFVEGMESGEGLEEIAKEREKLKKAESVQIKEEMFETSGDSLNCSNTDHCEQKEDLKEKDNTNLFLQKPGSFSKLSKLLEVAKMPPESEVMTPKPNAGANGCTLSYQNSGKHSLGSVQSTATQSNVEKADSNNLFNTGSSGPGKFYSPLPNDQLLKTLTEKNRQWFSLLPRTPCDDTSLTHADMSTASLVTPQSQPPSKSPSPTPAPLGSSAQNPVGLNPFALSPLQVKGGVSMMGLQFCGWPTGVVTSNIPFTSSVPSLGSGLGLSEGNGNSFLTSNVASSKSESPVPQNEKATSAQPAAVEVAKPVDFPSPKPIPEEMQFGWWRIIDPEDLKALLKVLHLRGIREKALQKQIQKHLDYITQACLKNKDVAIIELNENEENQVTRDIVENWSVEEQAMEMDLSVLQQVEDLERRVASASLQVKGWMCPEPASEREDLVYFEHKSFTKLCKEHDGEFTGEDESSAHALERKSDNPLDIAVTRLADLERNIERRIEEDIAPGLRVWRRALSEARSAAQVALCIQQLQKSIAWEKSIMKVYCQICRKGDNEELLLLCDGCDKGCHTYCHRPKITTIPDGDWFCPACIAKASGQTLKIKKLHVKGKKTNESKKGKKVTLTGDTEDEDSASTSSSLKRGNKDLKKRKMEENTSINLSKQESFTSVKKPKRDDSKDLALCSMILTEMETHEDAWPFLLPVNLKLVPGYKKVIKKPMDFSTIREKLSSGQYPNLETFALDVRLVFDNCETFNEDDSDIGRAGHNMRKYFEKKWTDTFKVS

**Q.** CC(/C=C1\SC(=S)N(NS(=O)(=O)c2ccccc2)C1=O)=C\c1ccccc1 was tested. Which Potency did it give?
**A.** active: 44.7 µM

**Q.** For O=C(CN1CCN(S(=O)(=O)c2cc(Cl)ccc2Cl)CC1)c1ccc(O)c(O)c1, which Potency is on record?
**A.** active: 44.7 µM

**Q.** Which Potency does the source give for O=C(c1cccc(Cl)c1)C1CCCN(Cc2ccc(N3CCNC3=O)cc2)C1 (stereo not given) here?
**A.** inconclusive: 70.8 µM [inhibitor, single point]

**Q.** How did the Potency turn out when Cc1cccc(N2CCN(C(=S)NCc3ccco3)CC2)c1C was run?
**A.** inconclusive: 35.5 µM [inhibitor, partial curve]

**Q.** With CCCCC1CN2CCc3c([nH]c4ccccc34)C2(C)C1 (stereo not given) as the compound, how does the Potency read?
**A.** inconclusive: 70.8 µM [inhibitor, single point]

**Q.** CCOc1ccc(NC(=O)CN2CCC(NC(=O)C3CCCCC3)CC2)cc1 was tested. Which Potency did it give?
**A.** inconclusive: 89.1 µM [inhibitor, single point]

**Q.** COc1ccc(S(=O)(=O)N(CC(=O)Nc2cccnc2)c2ccc(Cl)cc2)cc1 was tested. Which “activity change, negative = inhibition” value did it give?
**A.** inactive: -9.3%

**Q.** How did the Potency turn out when CCOC(=O)c1c(-c2ccc(C)o2)csc1NC(=O)CN1CCOCC1 was run?
**A.** inconclusive: 70.8 µM [inhibitor, partial curve]

**Q.** Which Potency does the source give for COc1ccc(C2NC(=S)NC3=C2CCc2cc(OC)ccc23)cc1 (stereo not given) here?
**A.** inconclusive: 25.1 µM [inhibitor, single point]

**Q.** For Cc1cccc2nc(-c3cccnc3)c(NCCC(C)C)n12, which Potency is on record?
**A.** inconclusive: 50.1 µM [inhibitor, partial curve]

**Q.** With COC1=C/C(=C/c2c(O)c(C#N)c3ccccn23)C=CC1=O as the compound, how does the Potency read?
**A.** active: 50.1 µM

**Q.** For CCC(C)NCCOCCOc1ccc(Br)cc1 (stereo not given), which Potency is on record?
**A.** active: 79.4 µM

**Q.** How did the Potency turn out when Cc1nc(NC(=O)c2ccccc2)sc1-c1csc(NCc2ccccc2)n1 was run?
**A.** inconclusive: 79.4 µM [inhibitor, single point]

**Q.** COc1ccc(-c2onc(C)c2C)cc1S(=O)(=O)NCC1CCN(Cc2cccc(F)c2)CC1 was tested. Which “activity change, negative = inhibition” value did it give?
**A.** inactive: -27.4%

**Q.** With CC1CCCCN1c1nnc(N)s1 (stereo not given) as the compound, how does the “activity change, negative = inhibition” value read?
**A.** inactive: -27.8%

**Q.** How did the “activity change, negative = inhibition” value turn out when Cc1nn(C(=O)N(C)C)c(C)c1CN1C(=O)c2ccccc2C1=O was run?
**A.** inactive: -12.4%

**Q.** For Cc1nc(-n2[nH]c3c(c2=O)CCCC3)[nH]c(=O)c1Cc1ccccc1, which Potency is on record?
**A.** inconclusive: 89.1 µM [inhibitor, single point]

**Q.** With CCOC(=O)c1ccc(-n2[nH]c(-c3ccccc3)cc2=O)cc1 as the compound, how does the Potency read?
**A.** inconclusive: 50.1 µM [inhibitor, partial curve]

**Q.** Cc1ccc(-n2c(=O)c3c(c4cc(C)ccc4n3C)n(CC(=O)NCc3ccccc3)c2=O)cc1 was tested. Which “activity change, negative = inhibition” value did it give?
**A.** inactive: -0.458%

**Q.** Which Potency does the source give for CCN1CCc2nc3sc(C(=O)c4ccc(F)cc4)c(N)c3cc2C1 here?
**A.** inconclusive: 56.2 µM [inhibitor, partial curve]

**Q.** How did the “activity change, negative = inhibition” value turn out when NS(=O)(=O)c1ccc(-c2ccc(/C=C3\SC(=S)N(C4CCS(=O)(=O)C4)C3=O)o2)cc1 (stereo not given) was run?
**A.** inactive: -27.7%

**Q.** How did the Potency turn out when COc1ccccc1NC(=O)CSc1nc(-c2ccccc2F)nc2cc(=O)[nH]n12 was run?
**A.** inconclusive: 50.1 µM [inhibitor, partial curve]

**Q.** Which “activity change, negative = inhibition” value does the source give for COc1ccc(Nc2ncnc3c2cnn3-c2ccc(C)cc2)cc1Cl here?
**A.** inactive: 2.74%

**Q.** Cn1c(C(=O)N2CCN(c3ccc(F)cc3)CC2)cc2ccccc21 was tested. Which Potency did it give?
**A.** inconclusive: 89.1 µM [inhibitor, single point]

**Q.** Which “activity change, negative = inhibition” value does the source give for CCOC(=O)c1ccc(CN(Cc2ccccc2C)S(=O)(=O)c2ccc(F)c(C)c2)cc1 here?
**A.** inactive: -1.45%

**Q.** How did the Potency turn out when COc1ccc(OCC(=O)NNc2c3ccccc3nc3ccccc23)cc1 was run?
**A.** inconclusive: 39.8 µM [inhibitor, full curve]

**Q.** How did the “activity change, negative = inhibition” value turn out when O=C(Nc1ccccc1C(F)(F)F)N1CCC(CN2CCc3ccccc3C2)CC1 was run?
**A.** inactive: -0.509%

**Q.** Which Potency does the source give for O=C(C1=C[C@H](c2ccc(Br)cc2)C[C@H](OCCCCO)O1)N1CCN(Cc2ccc3c(c2)OCO3)CC1 here?
**A.** inconclusive: 79.4 µM [inhibitor, partial curve]

**Q.** CCOc1ccc(S(=O)(=O)Nc2ccc(C(=O)NCC(c3ccco3)N(C)C)cc2)cc1 (stereo not given) was tested. Which Potency did it give?
**A.** inconclusive: 31.6 µM [inhibitor, full curve, poor fit]

**Q.** Which “activity change, negative = inhibition” value does the source give for O=C(c1ccc(-n2cncn2)c([N+](=O)[O-])c1)N1CCN(S(=O)(=O)c2ccc(F)c(F)c2)CC1 here?
**A.** inactive: -0.648%

**Q.** With COc1cc(-c2nnc(NC(=O)CS(=O)(=O)c3ccc(C)cc3)o2)cc(OC)c1OC as the compound, how does the Potency read?
**A.** active: 44.7 µM

**Q.** Which Potency does the source give for Cc1cccc2c(C(=O)N3CCN(C(=O)c4ccco4)CC3)cc(-c3cccc(Br)c3)nc12 here?
**A.** inconclusive: 35.5 µM [inhibitor, partial curve]

**Q.** With OC(CNCC(c1ccc(Cl)cc1Cl)c1c[nH]c2ccccc12)c1ccccc1 (stereo not given) as the compound, how does the Potency read?
**A.** inconclusive: 39.8 µM [inhibitor, partial curve]

**Q.** Which Potency does the source give for COc1ccc(N2CCN(C(=O)Cn3nnc(-c4cccs4)n3)CC2)cc1 here?
**A.** inconclusive: 5.01 µM [inhibitor, full curve]

**Q.** Which “activity change, negative = inhibition” value does the source give for O=C(NCc1ccccc1F)C1CCN(c2nn3cc(-c4ccc(F)cc4)nc3s2)CC1 here?
**A.** inactive: 1.15%

**Q.** C#CCOCCOCCOCCNc1nc(N2CCN(C(=O)CCCCCCCCCCNC(=O)Cn3cc(CCCCCN)nn3)CC2)nc(N2CCN(C(=O)CCCCCCCCCCNC(=O)Cn3cc(C[C@@H](C)O)nn3)CC2)n1 was tested. Which Potency did it give?
**A.** active: 79.4 µM

**Q.** Which Potency does the source give for O=C(c1ccco1)N1CCN(CC(=O)N2c3ccccc3CCc3ccccc32)CC1 here?
**A.** active: 17.8 µM

**Q.** c1ccc(-c2csc(NNC3=NCCCCC3)n2)cc1 was tested. Which Potency did it give?
**A.** inconclusive: 28.2 µM [inhibitor, single point]

**Q.** CC1(C)C(=O)Nc2ccccc2N1C(=O)CN1C(=O)NC(CCc2ccccc2)C1=O (stereo not given) was tested. Which Potency did it give?
**A.** inconclusive: 89.1 µM [inhibitor, single point]

**Q.** With COc1cccc(NC(=O)CN(C)C(=O)c2cc3c(s2)CCC3)c1 as the compound, how does the Potency read?
**A.** active: 56.2 µM

**Q.** How did the Potency turn out when CC1C(=O)N2CCCc3cc(S(=O)(=O)N4CCC(C(N)=O)CC4)cc1c32 (stereo not given) was run?
**A.** inconclusive: 89.1 µM [inhibitor, single point] and inconclusive: 56.2 µM [inhibitor, partial curve, poor fit]

**Q.** For COc1cccc(-c2ncc3ccccn23)c1, which Potency is on record?
**A.** active: 35.5 µM

**Q.** Which Potency does the source give for CCn1c(SCC(=O)Nc2cc(NC(C)=O)ccc2OC)nnc1-c1ccccn1 here?
**A.** inconclusive: 89.1 µM [inhibitor, single point]

**Q.** COc1cc2c(cc1OC)C1(CCCC1)CNC2c1ccc([N+](=O)[O-])cc1 (stereo not given) was tested. Which Potency did it give?
**A.** inconclusive: 50.1 µM [inhibitor, partial curve]

**Q.** For Cc1ccc(CCC(=O)Nc2ccc(C)c(C)c2)o1, which “activity change, negative = inhibition” value is on record?
**A.** inactive: -15.3%

**Q.** For Cc1ccc(Cl)cc1NC(=O)CSc1nc2ccccc2nc1Cc1ccccc1, which “activity change, negative = inhibition” value is on record?
**A.** inactive: 3.46%

**Q.** With Cc1c(NC(=S)NC(=O)c2cccc(Cl)c2)c(=O)n(-c2ccccc2)n1C as the compound, how does the Potency read?
**A.** inconclusive: 89.1 µM [inhibitor, single point]

**Q.** Which Potency does the source give for COc1ccc([C@]23Cc4ccccc4C(O2)C2=C(CCCC2=O)O3)cc1 here?
**A.** inconclusive: 12.6 µM [inhibitor, partial curve]

**Q.** COCC(=O)N(Cc1cc2cc(C)ccc2[nH]c1=O)c1cccc(C)c1C was tested. Which “activity change, negative = inhibition” value did it give?
**A.** inactive: -26.3%

**Q.** CN(C)c1ccc(/C=C(/C(=O)c2ccc(Cl)cc2Cl)n2cncn2)cc1 was tested. Which Potency did it give?
**A.** active: 50.1 µM

**Q.** For COC(=O)c1ccc(OCCCCN(C)Cc2ccccc2)cc1, which Potency is on record?
**A.** active: 56.2 µM

**Q.** With COc1ccc(-c2onc(C)c2C)cc1S(=O)(=O)NCC1CCN(Cc2cc(C)ccc2C)CC1 as the compound, how does the Potency read?
**A.** inconclusive: 39.8 µM [inhibitor, full curve]

**Q.** For Cn1c(=O)c2c(nc(SCC(=O)N3CCOCC3)n2C)n(C)c1=O, which “activity change, negative = inhibition” value is on record?
**A.** inactive: 5.34%

**Q.** With COc1ccc(Cn2ccnc2SCC(=O)NCc2ccco2)cc1 as the compound, how does the “activity change, negative = inhibition” value read?
**A.** inactive: -14.3%

**Q.** COc1cc2c(cc1OC)C(c1ccc(-c3ccc(Cl)cc3Cl)o1)=NCC2 was tested. Which Potency did it give?
**A.** inconclusive: 39.8 µM [inhibitor, partial curve]

**Q.** Which Potency does the source give for O=C(CSc1nnc(-c2ccccn2)n1Cc1ccco1)Nc1ccc2c(c1)OCO2 here?
**A.** inconclusive: 89.1 µM [inhibitor, single point]

**Q.** For COc1ccc2c(c1)C=C(CN1CCC(CO)(CCc3ccccc3)CC1)CO2, which Potency is on record?
**A.** inconclusive: 70.8 µM [inhibitor, partial curve]

**Q.** How did the “activity change, negative = inhibition” value turn out when CCCCCc1nc2sc3c(c2c(=O)n1NC(=O)c1ccc([N+](=O)[O-])cc1)CC(C)(C)OC3 was run?
**A.** inactive: -10.2%

**Q.** Cc1ccc(N/C=C/C(=O)C(C)(C)C)c(O)c1 was tested. Which Potency did it give?
**A.** inconclusive: 79.4 µM [inhibitor, single point]

**Q.** CC1(C)CC(=O)C(C(C#Cc2ccccc2)C2=C(O)CC(C)(C)CC2=O)=C(O)C1 was tested. Which Potency did it give?
**A.** inconclusive: 100 µM [inhibitor, single point]

**Q.** Which Potency does the source give for O=C(/C(=C/O)N=Nc1cccc(C(F)(F)F)c1)c1ccccc1 here?
**A.** active: 25.1 µM

**Q.** With Cc1ccc(C(=O)CSc2ccc(-c3ccncc3)nn2)cc1 as the compound, how does the Potency read?
**A.** inconclusive: 79.4 µM [inhibitor, single point]

**Q.** With Cn1c(CCNC(=O)c2ccccc2Cl)n[nH]c1=S as the compound, how does the “activity change, negative = inhibition” value read?
**A.** inactive: 4.25%

**Q.** For Cc1ccc2nc(N(Cc3cccnc3)C(=O)CCOc3ccccc3)sc2c1, which “activity change, negative = inhibition” value is on record?
**A.** inactive: -1.36%

**Q.** Cc1ccc(C(=O)NC2(C(F)(F)F)N=C(c3ccccc3)N(C3CCCCC3)C2=O)cc1 (stereo not given) was tested. Which “activity change, negative = inhibition” value did it give?
**A.** inactive: -17.8%

**Q.** For O=C(NNS(=O)(=O)c1ccccc1)c1sccc1-n1cccc1, which Potency is on record?
**A.** inconclusive: 89.1 µM [inhibitor, single point]

**Q.** CCOc1ccccc1C(=O)N/N=C/c1ccoc1 was tested. Which Potency did it give?
**A.** inconclusive: 70.8 µM [inhibitor, partial curve]

**Q.** How did the Potency turn out when CC(=O)Nc1ccc(SCC(=O)Nc2cc(C(C)(C)C)nn2-c2ccccc2)cc1 was run?
**A.** inconclusive: 89.1 µM [inhibitor, single point]

**Q.** For CSc1ccc(C2C(C(=O)c3ccco3)=C(O)C(=O)N2c2nnc(SC)s2)cc1 (stereo not given), which Potency is on record?
**A.** inconclusive: 50.1 µM [inhibitor, partial curve]

**Q.** Which Potency does the source give for CC1(C)Cc2cccc(OCC(=O)N3CCN(c4ccc([N+](=O)[O-])cc4)CC3)c2O1 here?
**A.** inconclusive: 44.7 µM [inhibitor, partial curve]
